PubChem BioAssay AID2546 (National Center for Advancing Translational Sciences (NCATS), 2010)
Among all 310,000 compounds or so, about 11,000 (3.5%) were called active. Inconclusive results (about 8%) are left out. The call rests on the fitted dose curve; in most records, active means well fitted inhibition curve with a large enough effect; inconclusive means small, poorly fitted or top-dose-only effect, or effect the other way; inactive means flat fitted curve, though single readings scatter. This is a selection; strong and weak results do not stand in their true shares.

Assay: VP16 counterscreen qHTS for inhibitors of ROR gamma transcriptional activity;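 further: Gal4-VP16 expression switched on by copper sulfate through the metallothionein promoter; nearly all actives have a fitted effect of over 50% in size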
Conditions: Drosophila S2 Gal4-VP16 UAS-luciferase, luminescence, 20 h; series mostly up to 53.6 µM; activity, negative = inhibition: at the top concentration
On the % scale 0 is the no-effect control and ±100 the full control effect; potency means the concentration at half of the fitted maximal effect.

With `O=c1c2ccccc2nc2n1C(CSCc1ccc(Cl)cc1Cl)CS2` (stereo not given) as the compound, how does the Potency read?
The Potency was active: 22.4 µM.

For `Nc1c(N=Nc2ccc(-c3ccc(N=Nc4cc(S(=O)(=O)O)c5ccccc5c4N)cc3)cc2)cc(S(=O)(=O)O)c2ccccc12`, which “activity, negative = inhibition” value is on record?
The value was inactive: -28.9%.

Which “activity, negative = inhibition” value does the source give for `CC(C)(C)[C@@H]1C=C(C(=O)NCc2ccccc2)O[C@H](OCc2ccc(CO)cc2)C1` here?
The value was inactive: 0.884%.

With `CN1CCCCC1CCN1c2ccccc2Sc2ccc(S(C)=O)cc21` (stereo not given) as the compound, how does the Potency read?
Its Potency is “inactive”.

For `CC(C)c1ccc2c(c1)c(SC(C)(C)C)c(CC(C)(C)C(=O)O)n2Cc1ccc(Cl)cc1`, which “activity, negative = inhibition” value is on record?
Its value is inactive: -0.999%.

For `c1cnc2c(c1)ccc1cccnc12`, which Potency is on record?
Its Potency is “inactive”.

With `CCCCCCNS(=O)(=O)c1ccccc1Br` as the compound, how does the “activity, negative = inhibition” value read?
Its value is inactive: -19.5%.

With `CCC1=C(OC(=O)N(CC)CC)N2C(=O)OC(=NCCc3c[nH]c4ccccc34)[C@]2(Cc2ccccc2)[C@H]2C1=CC[C@H]1C(=O)NC(=O)[C@H]12` as the compound, how does the “activity, negative = inhibition” value read?
The value was inactive: -17.3%.

Which Potency does the source give for `S=c1[nH]nc(COc2ccccc2)n1/N=C/c1cccs1` here?
Its Potency is active: 7.08 µM.

Which “activity, negative = inhibition” value does the source give for `CCCC[C@H]1C(=O)N(c2ccccc2)N(c2ccc(O)cc2)C1=O` here?
Its value is inactive: 4.87% [at 17 µM].

Which Potency does the source give for `CCn1c(CCn2c3ccccc3c3ccccc32)n[nH]c1=S` here?
The Potency was active: 6.31 µM.

For `C=CCOC(=O)C1=C[C@@H](c2coc3ccccc3c2=O)C[C@@H](OCc2ccc(CO)cc2)O1`, which “activity, negative = inhibition” value is on record?
The value was inactive: 4.96%.

For `COc1cc(CCN2C(=O)N[C@@H](c3cccc(C(F)(F)F)c3)C(C(C)=O)=C2C)cc(OC)c1OC`, which “activity, negative = inhibition” value is on record?
The value was inactive: -4.81%.

Which Potency does the source give for `CCC[C@@H]1C[C@@H](C(=O)NC(C(C)Cl)[C@H]2O[C@H](SC)[C@H](O)[C@@H](O)[C@H]2O)N(C)C1` (stereo not given in full) here?
The Potency was “inactive”.

With `COc1ccc(/C=N/Nc2ncnc3sc4c(c23)CCCC4)cc1O` as the compound, how does the Potency read?
Its Potency is active: 4.47 µM.

Which Potency does the source give for `O=C1CCc2cc(OCCCCc3nnnn3C3CCCCC3)ccc2N1` here?
The Potency was “inactive”.

With `O=c1c2ccccc2ncn1-c1ccc(Cl)cc1` as the compound, how does the “activity, negative = inhibition” value read?
The value was inactive: 26.9%.

With `C/C=C(/C)C(=O)OC1c2c(ccc3ccc(=O)oc23)OC(C)(C)C1OC(C)=O` (stereo not given) as the compound, how does the “activity, negative = inhibition” value read?
The value was inactive: -10.1%.

With `CC1=CC(C)(C)Nc2ccccc21` as the compound, how does the Potency read?
Its Potency is “inactive”.

Which Potency does the source give for `CCOc1ccc(NC(=S)Nc2cc(C)[nH]n2)cc1` here?
Its Potency is active: 7.08 µM.

With `COc1ccc(C2=N[C@H](c3ccccc3)CO2)cc1` as the compound, how does the “activity, negative = inhibition” value read?
Its value is inactive: -5.85% [at 96.6 µM].

Which “activity, negative = inhibition” value does the source give for `O=C1Nc2ccc(Cl)cc2C(C#CC2CC2)(C(F)(F)F)O1` (stereo not given) here?
The value was inactive: -30%.

Which “activity, negative = inhibition” value does the source give for `CN(C)c1ccc(N=C/C=C2\N(C)c3ccccc3C2(C)C)cc1` here?
Its value is inactive: -2.71%.

Which Potency does the source give for `CCc1cccc(NC(=S)N2CCC(c3ccccc3)C2)c1` (stereo not given) here?
Its Potency is active: 10 µM.

For `CC(SC1=NCCS1)C(=O)Nc1nnc(-c2ccc(Br)cc2)s1` (stereo not given), which Potency is on record?
Its Potency is active: 10 µM.

For `C[C@H]1CCC[C@@]2(O[C@@H](CCO)C[C@@H](O)[C@@H]2O)O1`, which “activity, negative = inhibition” value is on record?
Its value is inactive: -3.44%.

For `O=C(O)c1ccc2c3c1cccc3c(=O)n1c3ccccc3nc21`, which “activity, negative = inhibition” value is on record?
The value was inactive: -23.7%.

Which “activity, negative = inhibition” value does the source give for `CCC[C@@H]1C[C@@H](C(=O)N[C@@H](C2O[C@H](SC)[C@H](O)[C@@H](O)[C@H]2O)[C@H](C)Cl)N(C)C1` (stereo not given in full) here?
Its value is inactive: 6.84%.

Which “activity, negative = inhibition” value does the source give for `C[C@]1(C(=O)NCCCNc2ncc(C(F)(F)F)cc2Cl)C=C[C@@H](Cc2ccccc2)N1C(=O)c1ccccc1` here?
Its value is inactive: 3.58%.

Which Potency does the source give for `CNC(=S)N/N=C/c1c(Cl)cccc1Cl` here?
Its Potency is active: 6.31 µM.

With `CN1/C(=C\C(=O)c2cccs2)Sc2ccccc21` as the compound, how does the “activity, negative = inhibition” value read?
Its value is inactive: -25.2%.

With `CCN(CC)CCC(c1ccc(N(C)C)cc1)c1c(OC)cc(OC)c2c(-c3ccccc3)cc(=O)oc12` (stereo not given) as the compound, how does the “activity, negative = inhibition” value read?
Its value is inactive: 6.88%.

For `C#CCNC(=O)C1=C[C@@H](C2CCCCC2)C[C@@H](OCc2ccc(CO)cc2)O1`, which “activity, negative = inhibition” value is on record?
Its value is inactive: -16.1%.

With `Cc1ccc(F)c([C@H]2[C@H]3C=CC[C@@H](C)[C@@H]3C(=O)N2Cc2ccccc2)c1` as the compound, how does the “activity, negative = inhibition” value read?
Its value is inactive: -14.6%.

For `CCC(=O)O[C@@]1(C(=O)CCl)[C@@H](C)C[C@@H]2[C@H]3CCC4=CC(=O)C=C[C@@]4(C)[C@]3(F)[C@@H](O)C[C@@]21C`, which “activity, negative = inhibition” value is on record?
The value was inactive: 9.22% [at 17 µM].

For `Cn1c(=O)c2c(ncn2C)n(C)c1=O`, which Potency is on record?
The Potency was “inactive”.

With `COc1ccc(CC(=O)c2ccc(O)cc2O)cc1` as the compound, how does the “activity, negative = inhibition” value read?
Its value is inactive: -7.06%.

For `CN(C)CC/C=C1/c2ccccc2COc2ccccc21`, which “activity, negative = inhibition” value is on record?
The value was inactive: 9.71%.

Which Potency does the source give for `COc1cc(NC(=S)NC(=O)c2cc(C)cc(C)c2)ccc1NC(=O)c1cccs1` here?
Its Potency is active: 1.78 µM.

For `COc1ccccc1OCCNCC(O)COc1cccc2[nH]c3ccccc3c12` (stereo not given), which Potency is on record?
Its Potency is “inactive”.

Which Potency does the source give for `C=CCNc1nc2c(c(=O)n(C)c(=O)n2C)n1CCCCCC` here?
The Potency was active: 5.01 µM.

With `O=C(c1ccc(OCCN2CCCCC2)cc1)c1c(-c2ccc(O)cc2)sc2cc(O)ccc12` as the compound, how does the Potency read?
The Potency was “inactive”.

Which Potency does the source give for `Cc1ccc(-c2c(C(=O)N/N=C/c3cccs3)nnn2-c2nonc2N)cc1` here?
The Potency was active: 5.62 µM.

Which “activity, negative = inhibition” value does the source give for `COC(=O)CNC(=O)C1(C)C=CCN1C(=O)c1ccccc1` (stereo not given) here?
Its value is inactive: 0.675%.

With `COCOc1cc(OC)ccc1C(=O)/C=C/c1ccc2c(c1)OCO2` as the compound, how does the Potency read?
The Potency was “inactive”.
